Source: the supplement of paper PMC11417369
± gives the standard deviation of the averaged measurements. This is one part of the list.

System: PfAP2-EXP AP2 domain (GST-tagged)
Experiment: gcPBM binding intensity (ln(normalized median fluorescence intensity)); higher = stronger DNA binding
How it was run: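 GST-tagged P. falciparum DNA-binding domains, expressed in E. coli (about 25 μg on average), were applied for 1 h to an Agilent 4 × 180k array of primer-extended double-stranded 36-bp intergenic genomic probes plus negative controls. The binding buffer was 1× PBS with 1% milk, 0.2 mg/ml BSA, 0.5% salmon testes DNA and 0.03% Triton X-100. Bound protein was detected with Alexa488 anti-GST antibody and scanned at 488 nm. Binding intensity is the highest Masliner-normalised natural-log median intensity across replicate spots of either probe orientation.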

Row | Sequence | gcPBM binding intensity (ln)
1 | TTTCCTAGCACATGCACACAAAAAAAAAAAAAAAAA [CACACA_site1404] | 8.35 ± 0.35
2 | ATGTTCGATGATAAATGTACAAAAATAATGGAAGTA [XGTACX_site1916] | 9.06 ± 0.52
3 | TATAAAAATATTGAAAGTACTTATTAAAATATTATT [XGTACX_site3701] | 8.31 ± 0.4
4 | TATTCCTAATTGACAACACACACAACAAAAAAGGGA [CACACA_site8350] | 9.03 ± 0.63
5 | AGAATTATTTTATGTTTGCACTTTTTTTTTCTATAA [GTGCAC_site9876] | 8.9 ± 0.39
6 | TAATGAAATATTATGTGTACTTAAAAATTATTAAAT [XGTACX_site5261] | 8.17 ± 0.28
7 | ATTATTAACATATATATACACACGAAAAAATTATAT [CACACA_site625] | 8.87 ± 0.47
8 | ATATATTTTTTGAATACACACATATTATCTGTAATA [CACACA_site4826] | 8.37 ± 0.38
9 | TATAAATAGAGACACACACACATATAAATAAATATT [CACACA_site7854] | 8.75 ± 0.35
10 | TATATTTCTTCTATAACATGCAGATATATGAAAATA [TGCATGCA_site971] | 8.55 ± 0.23
11 | CTATAATATGGTATTACACACTGTTATAAGTATGGC [CACACA_site7068] | 8.46 ± 0.42
12 | TTTTTGTTCTATATGGTGCATGTTTATATTCGTATT | 9.38 ± 0.29
13 | ATTAGCAACATTGATAAATATAAACACACGAAAACA [TGCATGCA_negctrl_site97] | 8.98 ± 0.43
14 | CACGTATATATATATACACACACATATATATATGTA [CACACA_site7948] | 8.73 ± 0.31
15 | CATGTTTATGCCGTTTGTACATATATATCTAAAAAA [XGTACX_site4336] | 8.74 ± 0.37
16 | TTTTAGAAATTTACTAAACTTTATATAACTATTGAA [TGCATGCA_negctrl_site280] | 8.02 ± 0.45
17 | ATACCATAAATATTGTGTACATAAATATGTTAGTAA [XGTACX_site6077] | 8.36 ± 0.31
18 | ATAAGTAAAAATAAAAAAAAAATATATATATATATA [CACACA_negctrl_site1816] | 10 ± 0.37
19 | ATGATTATAATTTAAAATATTTTACATAACCATTTC [GTGCAC_negctrl_site297] | 8.41 ± 0.49

Row | Sequence | gcPBM binding intensity (ln)
20 | TTTAGCTATTATAGCTGTACAATGATAAAATAAATT [XGTACX_site6318] | 8.45 ± 0.38
21 | GTTCATATCTTTTGAGCACACATATATATATATAAA [CACACA_site9099] | 8.56 ± 0.42
22 | AATGAATCCTTATATACACACATTATTATATTATAT [CACACA_site3108] | 8.69 ± 0.51
23 | ATTGATACATCCAATACACACTACATATAATGATGT [CACACA_site8561] | 8.4 ± 0.3
24 | ATATTAATAATATATGCATGCATTAACATATTGAAA [TGCATGCA_site951] | 9.71 ± 0.12
25 | GTATGTATGTATATATGTACACATTATTATTTAATG [XGTACX_site5802] | 8.78 ± 0.11
26 | TTTTTTATATATACATATATATAAATATATATAACT [GTGCAC_negctrl_site385] | 8.06 ± 0.45
27 | GAGAAAAGGAAATTCACACATATAAAGAAAGATCTA [CACACA_site5420] | 8.5 ± 0.55
28 | TATAATGAGGATAATAGTACATATGAATACAAAAAA [XGTACX_site3665] | 8.86 ± 0.45
29 | GCCATAAAAATATATACACACATAAAAAAAAATTAT [CACACA_site1176] | 8.36 ± 0.53
30 | TACACAAGCAGACACACACACATATAGATTTATATA [CACACA_site6715] | 8.57 ± 0.69
31 | TTAATATTGTATTTCACACATAATTTAATATACTCA [CACACA_site5678] | 8.26 ± 0.42
32 | TATAGGAATATATGGTGTACCTATAAATCTGACATA [XGTACX_site8111] | 8.46 ± 0.33
33 | TTAAATAAGTAATTATGTACATATAATATTCTTTAT [XGTACX_site5280] | 8.3 ± 0.18
34 | TAGAAAATATAAAAATGTACGTAAATAAAATGTGCA [XGTACX_site3459] | 9.18 ± 0.43
35 | ATTTATATATTTATACGTACTTATATATTGTTACAT [XGTACX_site6254] | 8.9 ± 0.28
36 | AAAAATAAAAATTGCACACTAAAAAATTACGCACGA [CACACA_site3418] | 8.59 ± 0.12
37 | AATTATATTACAAACTGTACATATATAATTTGTCCA [XGTACX_site6009] | 8.23 ± 0.26
38 | ATCCGAGTGTGAAATACACACATGATAATGTGAATG [CACACA_site919] | 8.37 ± 0.33

Row | Sequence | gcPBM binding intensity (ln)
39 | TCTTAAGGAAAAGAGTGTACAGAAATTTTTATTAAC [XGTACX_site6139] | 8.67 ± 0.48
40 | ATATATAGATAATCAAGTACATAACAAGATATAAGA [XGTACX_site2186] | 8.81 ± 0.47
41 | AAATGTGAAGTGAATACACACCTAATAAATATAACA [CACACA_site5727] | 8.64 ± 0.38
42 | TACTGATCTTTCTAGGTGCGCTGCTACCATTATCGT [GTGCAC_site9538] | 8.74 ± 0.43
43 | ACATGAAATGTTTAAAGTACATATATAAATTTTTTT [XGTACX_site4519] | 8.16 ± 0.33
44 | TATATTTAATTATTATGTACTTATAATTTTTGAAAG [XGTACX_site8548] | 8.51 ± 0.38
45 | AAATATATATACACATATATATATATATATATATAT [CACACA_negctrl_site1742] | 9.95 ± 0.52
46 | CTTTCCTATTTGACACGTACGAAATTTTACATAAAA [XGTACX_site6689] | 8.89 ± 0.38
47 | AAAATAAAAAATATAACACACAATAAATATTTATAT [CACACA_site6986] | 8.68 ± 0.28
48 | TATGAAATATCGTGCACACACGAATAATATAAGAAT [CACACA_site4842] | 8.74 ± 0.14
49 | TATGGTATATACAACACACACACATATGTATAAATA [CACACA_site6562] | 8.88 ± 0.5
50 | ATTTATACATGCTAATGTACTTATTTCACCTATATC [XGTACX_site3120] | 8.69 ± 0.38
51 | TATATATATAATATTACACACATATATTTATATTTT [CACACA_site3460] | 8.87 ± 0.099
52 | CAAGTATTAATTATGTGTACATATATATATATATAT [XGTACX_site5311] | 10.1 ± 0.53
53 | TATGTATTTATCCACTTACATTTTTACTTTTCCATT [CACACA_negctrl_site1141] | 8.88 ± 0.36
54 | AAAAAAAAAAAATAGACACACATATTATATATATAT [CACACA_site1419] | 9.75 ± 0.16
55 | TATTATTCTATACATTGTACATATTTTATAGTATGT [XGTACX_site73] | 8.6 ± 0.39
56 | TTTAAAACCTTACATACACACAAATATGTAAATATA [CACACA_site6464] | 8.27 ± 0.38
